The campaign covered roughly 310,000 compounds. About 14,000 (4.5%) showed an effect of 50% or more. Effects have a minus sign here. The list shows a part of the results.
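Note: peak tail current of the secondary pulse compared with the same well before compound.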

In this assay the target is human ether-à-go-go-related gene (hERG) potassium channel (human, UniProt Q12809). The assay can be described thus: primary screen, population patch clamp on CHO cells stably expressing hERG.
Sequence of human ether-à-go-go-related gene (hERG) potassium channel (Q12809 whole entry, looked up): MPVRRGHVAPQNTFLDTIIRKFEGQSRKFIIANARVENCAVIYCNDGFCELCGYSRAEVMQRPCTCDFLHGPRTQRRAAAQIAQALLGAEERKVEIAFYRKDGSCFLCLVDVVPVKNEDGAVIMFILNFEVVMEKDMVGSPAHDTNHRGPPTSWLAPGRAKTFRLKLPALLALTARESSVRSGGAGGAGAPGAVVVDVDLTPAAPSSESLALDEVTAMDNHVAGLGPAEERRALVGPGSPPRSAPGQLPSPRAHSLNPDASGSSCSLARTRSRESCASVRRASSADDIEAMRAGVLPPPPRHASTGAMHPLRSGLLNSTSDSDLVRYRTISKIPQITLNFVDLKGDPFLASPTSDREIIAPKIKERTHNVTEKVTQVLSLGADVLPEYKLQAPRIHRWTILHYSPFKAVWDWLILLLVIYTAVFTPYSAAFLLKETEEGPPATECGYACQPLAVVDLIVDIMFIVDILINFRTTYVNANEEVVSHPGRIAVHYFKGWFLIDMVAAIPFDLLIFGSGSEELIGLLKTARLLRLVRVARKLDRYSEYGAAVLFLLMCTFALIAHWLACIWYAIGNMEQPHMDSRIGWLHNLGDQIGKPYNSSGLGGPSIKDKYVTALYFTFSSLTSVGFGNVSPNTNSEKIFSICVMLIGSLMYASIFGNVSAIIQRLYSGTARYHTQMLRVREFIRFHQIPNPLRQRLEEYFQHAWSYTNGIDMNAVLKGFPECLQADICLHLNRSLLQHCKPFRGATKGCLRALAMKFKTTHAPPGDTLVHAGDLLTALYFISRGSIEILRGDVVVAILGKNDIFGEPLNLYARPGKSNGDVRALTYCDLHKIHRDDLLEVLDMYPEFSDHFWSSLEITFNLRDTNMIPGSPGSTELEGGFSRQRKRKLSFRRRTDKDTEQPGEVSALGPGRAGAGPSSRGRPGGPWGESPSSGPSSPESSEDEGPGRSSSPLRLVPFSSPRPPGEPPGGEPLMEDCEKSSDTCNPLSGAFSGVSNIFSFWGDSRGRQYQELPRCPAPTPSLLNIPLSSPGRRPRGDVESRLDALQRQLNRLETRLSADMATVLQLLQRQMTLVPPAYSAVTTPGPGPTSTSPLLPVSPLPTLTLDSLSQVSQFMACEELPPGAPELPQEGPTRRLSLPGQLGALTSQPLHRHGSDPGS
For `Cc1ccccc1NC(=O)C1CCCN(C(=O)NCc2ccccc2)C1` (stereo not shown), the “hERG current change (%, negative = inhibition) at 10uM” value came to 1.82%.
As to `Cc1cc(C)cc(N(CC(=O)O)S(=O)(=O)c2c(C)noc2C)c1`, the “hERG current change (%, negative = inhibition) at 10uM” value came to 4.22%.
`CCn1c(SCC(=O)Nc2cc(C)on2)nnc1-c1ccncc1`: the “hERG current change (%, negative = inhibition) at 10uM” value is reported as 9.32%.
Under `Cc1onc(-c2c(Cl)cccc2Cl)c1NC(=O)N1CCSCC1` stands 9.61%; under `Cc1ccc(/C=N/NC(=O)CN2CCN(Cc3ccccc3)CC2)o1`, -11.7%; under `COc1cccc2cc(C(=O)C3=C(O)C(=O)N(c4cc(C)on4)C3c3cccs3)oc12` (stereo not shown), 22.9%.
Under `COc1ccccc1C(c1nnnn1C(C)(C)C)N1CCN(C(=O)c2ccco2)CC1` (stereo not shown) stands -53.9%.
As for `COc1ccc(-c2n[nH]c(=S)o2)c(OC)c1`, the figure is 25.1%.
As for `Cc1ccc(NC(=S)N2CCCC(CO)C2)c(C)c1` (stereo not shown), the “hERG current change (%, negative = inhibition) at 10uM” value is given as 21.4%.
As for `Cc1nc2ccccc2c(=O)n1NC(=O)c1ccc(F)cc1Cl`, the figure is -4.62%.
Under `O=C(NCc1ccc(Cl)cc1)c1ccc(Br)o1` stands -30.4%; under `CCN1CCN(CCNC(=O)c2ccc3c(c2)NC(=O)/C(=C\c2ccc(OC)c(OC)c2)S3)CC1`, -7.23%; under `O=C(CO/N=C/c1ccccc1OC(F)F)N1CCc2ccccc21`, 17.9%.
As for `C=CCCC(=O)Nc1nc(C)c(-c2csc(Nc3ccc(Cl)cc3Cl)n2)s1`, the figure is 15.4%; as for `COc1ccc(-c2ccc(OC(=O)NC3CCS(=O)(=O)C3)cc2)cc1` (stereo not shown), 7.68%.
Regarding `CC(=O)Oc1ccc(C2(C)CC(C)(C)Oc3cc(OC(C)=O)ccc32)c(OC(C)=O)c1` (stereo not shown), the “hERG current change (%, negative = inhibition) at 10uM” value is reported as 8.4%.
`O=C(C1CCCN(Cc2ccncc2)C1)N1CCc2ccccc2C1.O=C(O)C(=O)O` (stereo not shown): the “hERG current change (%, negative = inhibition) at 10uM” value was -19.2%.
Under `CCCC(=O)Nc1ccc(C(=O)Nc2cccc(OC)c2)cc1` stands -29.5%.
Under `COc1cccc(C(c2sc3ncnn3c2O)N2CCc3ccccc3C2)c1` (stereo not shown) stands -3.31%.
Regarding `COc1ccc(OC)c(C2CC(=O)NC(SC)=C2C#N)c1` (stereo not shown), the “hERG current change (%, negative = inhibition) at 10uM” value was found to be 5.48%.
As for `O=C(O)CCn1c(=S)oc2ccccc21`, the figure is -0.618%; as for `C=CCn1c(-c2ccc(OC)cc2)csc1=Nc1c(C)n(C)n(-c2ccccc2)c1=O`, -26.5%; as for `CC(C)c1nc(SCC(=O)NCC2CCCO2)c2c(=O)n(C)c(=O)n(C)c2n1` (stereo not shown), -0.765%.
Under `O=C(/C=C/c1ccccc1)Oc1cccc2cccnc12` stands 4.22%.
As for `O=C(COC(=O)CC(c1ccccc1)c1ccccc1)Nc1c(F)cccc1F`, the figure is 3.58%.
As to `COc1ccc(-c2csc3ncnc(N4CCN(c5ccccc5)CC4)c23)cc1`, the “hERG current change (%, negative = inhibition) at 10uM” value amounted to 12.3%.
Under `O=C(CCc1cccc(Cl)c1)N1CCCC(Nc2ccccc2)C1` (stereo not shown) stands -22.6%; under `N#Cc1c(SCC(=O)Nc2nc3ccccc3s2)sc2c(O)cc(=O)[nH]c12`, 20.7%; under `Cc1ccc(S(=O)(=O)N2CCN(C(=O)c3cc(-c4cccs4)nn3-c3ccccc3)CC2)cc1`, 8.93%.
In the case of `CCOC(=O)C1CCN(C(=O)c2ccccc2NS(=O)(=O)c2ccc(C)cc2)CC1`, the “hERG current change (%, negative = inhibition) at 10uM” value stood at 12.4%.
Consider `CCC1C(=O)n2nc(-c3ccccc3)cc2N=C1C` (stereo not shown), for which the “hERG current change (%, negative = inhibition) at 10uM” value is 1.22%.
With `CNc1ccc2c3c(cccc13)C(=O)N(C)C2=O`, the “hERG current change (%, negative = inhibition) at 10uM” value was determined as 7.27%.
Under `O=C(CSc1nc2[nH]ncc2c(=O)[nH]1)Nc1cccc(Cl)c1` stands 4.2%; under `Cc1cccc(C2NC(=O)c3ccccc3O2)c1` (stereo not shown), 7.59%.
Under `Cl.O=C(c1ccco1)N1CCN(C(c2ccccc2Cl)c2nnnn2Cc2ccco2)CC1` (stereo not shown) stands -65.1%; under `Cc1ccc(C(=O)N/C(=C\c2ccccc2)C(=O)NCCN2CCOCC2)cc1`, -62.4%.
As for `O=C(Nc1nc2ccc(Oc3ccccc3)cc2s1)c1cc([N+](=O)[O-])ccc1N1CCOCC1`, the figure is 4.29%; as for `O=C(c1cccnc1)N1N=C2CCCCCC2C1(O)C(F)(F)F` (stereo not shown), 5.59%.
For the compound `CSc1ccccc1NC(=O)CN(C)C(=O)C1CCN(C(=O)Nc2ccccc2)CC1`, the “hERG current change (%, negative = inhibition) at 10uM” value is reported as -11.4%.
Under `Cc1ccc(OCc2nnc(SCc3cc(=O)[nH]c4ccccc34)o2)cc1` stands 5.49%; under `O=C1CC(c2cccc(Cl)c2)c2cc3c(cc2N1)CCC3` (stereo not shown), 12.7%; under `CCOC(=O)c1cc(CC)sc1NC(=O)COC(=O)c1cc[n+]([O-])cc1`, -3.23%.
As for `COc1ccc(N/C=C(\C(C)=O)c2ccc(OC)c(OC)c2)cc1OC`, the “hERG current change (%, negative = inhibition) at 10uM” value is reported as 18.2%.

Source of the values: article PMC4336329 (PLoS ONE, 2015).
